Data as given in publication PMC10726135.
The list shows a part of the results. At the low end of the ranking, values are background and their order means little. Measured with an extract: partners may take part in the binding.

target: T1, HNF4alpha8 (COS-7 nuclear extract) (UniProt P41235-5); assay: protein-binding microarray; conditions: COS-7 nuclear extract on double-stranded Agilent 4x180k PBM; binding buffer, salt, pH and temperature not given; high values mean tight binding; double strand, one strand shown; sequences stand for … in …GCCTAGGGAGATTAGAGTATCGGTCGA
T1 sequence: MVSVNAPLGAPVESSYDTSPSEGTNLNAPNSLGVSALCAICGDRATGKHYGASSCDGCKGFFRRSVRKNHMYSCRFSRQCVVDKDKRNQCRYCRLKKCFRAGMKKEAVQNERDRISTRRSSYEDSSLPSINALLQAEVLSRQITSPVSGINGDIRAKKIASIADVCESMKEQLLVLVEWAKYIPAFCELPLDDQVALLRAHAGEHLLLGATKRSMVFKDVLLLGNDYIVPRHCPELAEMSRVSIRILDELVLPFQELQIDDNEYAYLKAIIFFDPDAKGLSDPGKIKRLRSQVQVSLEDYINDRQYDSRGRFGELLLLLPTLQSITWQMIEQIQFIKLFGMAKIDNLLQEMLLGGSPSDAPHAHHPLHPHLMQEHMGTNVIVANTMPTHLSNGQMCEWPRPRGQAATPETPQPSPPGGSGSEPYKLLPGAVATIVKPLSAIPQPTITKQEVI

Row | Sequence | binding signal (log2 normalized intensity)
1 | GAGTCCAAACTGGGACCTGTGACACTCTGC | 0.644
2 | AGATCCTCTAAATTCCAGGGCTGGGTCCAG | 2.8
3 | TTGGGCCAGTCGCTTAACCTCTTGATCCTG | 2.24
4 | GTTCATTTGCACTTGTTTTTTCAGGTGTTG | 2.04
5 | GCCTCCCTCCTTCCGCGGACGTGTTCCCAC | 1.4
6 | GCCCAGATAAGAACTGCAAGGCTAGAGATT | -1.32
7 | TTAAGATTTGACCCTTGGCCAGGTGCAGTG | 5.41
8 | CTTTGGCTCCAGAGTCCACATTCTTAAACG | 2.75
9 | GGAGGAGGTCAAAGTGCAACTACAAGGAGC | 5.67
10 | CTGAGACAACACTCAGGATACCTAAGCCCC | 1.33
11 | TCCATCTAGCAGCCCCAACCCACTGTTGCC | 2.76
12 | GAGGAGCTAACAGTAAAACTGAGATCTAAG | -1.23
13 | TGGGCCCACAGATGATCAAAGGTCAGTCTT | 7.25
14 | TAAGGTTCCAGCAAAGAGATTAGGACACAG | -1.33
15 | AGCATGCGGTAAAGAAGCCAGCCAAATCCC | -1.32
16 | CTTCTCATACTACTGTACTTTGCTCTCAGC | 5.32
17 | ACCAGGATAGGGAGGGGTAAGGGTGGGGGT | -1.22
18 | TTCCCCCTCCCTGGACTCCTGGGACTTATT | 3.55
19 | CATTCAAAGCCTAGGCTCCAGGGCACTGCC | -1.43
20 | AGTGGTTTCAAGGTGACCCCACGGAGCTGC | 3

Row | Sequence | binding signal (log2 normalized intensity)
21 | GGGAAGCAGTGAGGGTGGGTTCAAAGGTCA | 8.86
22 | GAAATTCTGGCCAACCAGCACTTCTGGAGG | -1.32
23 | AGAAATAGCATCACGAAAGGCAACATCTTG | -1.34
24 | TCCGGCTGGCCTTCCCTCCTCCCTCCGTCT | 2.13
25 | TCGCGAGAGAACTGAAAAAGGGGACCGGCC | -1.24
26 | TATTTGGAACCAAGAGCAGATTTGTTTGCT | -1.29
27 | CTGAAGTCTCAAAGTTCACCACTTTTGCAA | 2.83
28 | GAATGTTGAACCTTTCTTTGTCTTTGCAAT | 1.98
29 | AGATTCGGTGAGGGATTGTTTAGGTACAAA | 1.25
30 | GAGATGGAATCTTGCCCTGTCGCCCAGGCT | 0.395
31 | AGAATAAACGCTGAAGTCTCAAAGTTCACC | 4.43
32 | ATGTACATGTGCAAAAGCACCCAAGGCTCT | -1.36
33 | ATTTTTATGTGGCATTTCAAAGGAGGAGGC | -1.28
34 | CCCACCTATGTCCTTATCCTCATTGTGTGC | 2.11
35 | CCCCAAATCCCCTTCAAGTCTGAGATGAAG | 1.56
36 | TGGTCCCAGGGGAGGTTATCTTGGGGCTAA | -1.13
37 | TCTGACTCGGGTGTTCACAGGTGACCTCTG | 5.12
38 | ATAATAAATAAGGGAGGTAAAAGTCCAACA | 3.6
39 | GTAAACATTTGCCTTTAGGGCCCCCTGTGA | 2.25
40 | TGGGCCAAAGGTCATACCTGTCTAGGTGGA | 4.74
